This is one part of the list. The exact form of the protein is not confirmed.

The assay has as its target GST-SBP-ILF3 (Homo sapiens) (UniProt Q12906). Briefly: targeted RNA Bind-n-Seq. The conditions noted are these: RBNS binding buffer: 25 mM Tris pH 7.5, 150 mM KCl, 3 mM MgCl2, 0.1% Tween, 0.5 mg/mL BSA, 1 mM DTT; 27 nM protein, 750 pM RNA pool; temperature not stated; high values mean tight binding; sequences stand for … in GGGUAAAAGCGAGGUGAA…CGGGACAAGUAUUAUGGG
In the case of “UUUUUUUUUUGAGACGGGGUCUGUCUCCUA [tttttgagapaired]”, the binding signal (log2 fold change) was found to be 0.813.
To “GUGUGUGGUGUUGGCUCCUAACACCAUACG [gtspaired]” belongs -0.672.
For “UUUUUUUUUUGAGACCGCAGCGGUCUCCGG [tttttgagapaired]” the value was 0.947; for “GUGUGUUGUGUUGGUCUCUAACACAGCACA [gtspaired]”, -0.604; for “UUUUUUUUUUGAGACUGUAGCAGUUUCCGG [tttttgagapaired]”, 0.862.
Take “GUUGGUGGUGUUGGCACCUAACACCGCCAA [gtspaired]”: the binding signal (log2 fold change) was -0.58.
For “UUUUUUUUUUGAGACCGGCACGGUCUCCGG [tttttgagapaired]” the value was 0.678; for “UUCUCUUCUCCUCCGUGGGAGGGGAAGGGA [ctspaired]”, -0.42.
On to “GUUGUGUGUGUUGGUGUCUAACACACGCGA [gtspaired]”, for which the binding signal (log2 fold change) is -0.441.
To “GUGGUGUGUGUUGGAUCCUAACACAUACCG [gtspaired]” belongs -0.609; to “UUUUUUUUUUGAGAUGGAAGCCAUCUCCGG [tttttgagapaired]”, 0.085.
For “GUGUUGUGUGUUGGUGCCUAACACACAACG [gtspaired]” the value was -0.397; for “UUUUUUUUUUGAGACGGAGUCCGUCUUCUA [tttttgagapaired]”, 0.368; for “GUUGUGUGUGUUGGUGCCUAACACACACAG [gtspaired]”, -0.374.
To “UUUUUUUUUUGAGAACGAUCCGUUCUCCGG [tttttgagapaired]” belongs 0.0793; to “UUCCUUCUUCCUCCAUGGGAGGGAGAGGGA [ctspaired]”, -0.823.
With “UUUUUUUUUUGAGAUGGGGACUAUCUCCUA [tttttgagapaired]”, the binding signal (log2 fold change) stood at 0.496.
For “UUUUUUUUUUGAGACGGAGGCCGUUUCCUG [tttttgagapaired]” the value was 0.66; for “UUUUUUUUUUGAGAGCGAUACGCUCUCCUA [tttttgagapaired]”, -0.0853.
For “UUUUUUUUUUGAGAGCGGGGCGCUCUCCUG [tttttgagapaired]” the value was 0.398; for “UUUUUUUUUUGAGACUGUGUCAGUUUCCUA [tttttgagapaired]”, 0.643.
To “UUUUUUUUUUGAGACCGAGGCGGUCUCCUG [tttttgagapaired]” belongs 0.45.
“UUUUUUUUUUGAGAGCGAGUCGCUCUCCAG [tttttgagapaired]”: the binding signal (log2 fold change) was determined as 0.51.
To “UUCUUCUCUCCUCCGAGGGAGGGGGGAAGA [ctspaired]” belongs 0.00065.
To “UUUUUUUUUUGAGACUGAAGCAGUUUCCAG [tttttgagapaired]” belongs 0.472; to “GUGUGUGGUGUUGGACCCUAACACCACGCG [gtspaired]”, -0.517.
On to “UUUUUUUUUUGAGAGGGGUCCCCUCUCCGG [tttttgagapaired]”, for which the binding signal (log2 fold change) was 0.949.
For “UUUUUUUUUUGAGAUGGUGUCCGUCUCCAG [tttttgagapaired]” the value was 1.02.
To “UUUUUUUUUUGAGAUGGAUGCCAUCUCCUA [tttttgagapaired]” belongs 0.161; to “UUUUUUUUUUGAGAACGACACGUUCUCCAG [tttttgagapaired]”, 0.0481.
For “UUUUUUUUUUGAGAGCGUUGCGCUCUCCGG [tttttgagapaired]” the value was 0.447; for “UUUUUUUUUUGAGACGGCGUCCGUCUUCUG [tttttgagapaired]”, 0.908; for “UUUUUUUUUUGAGAACGGAACGUUCUUCUA [tttttgagapaired]”, -0.285.
For “GGUUGUGGUGUUGGCACCUAACACCGCGAC [gtspaired]”, the binding signal (log2 fold change) is -0.527.
Take “GUGUGGUGUGUUGGAACCUAACACAUCACA [gtspaired]”: the binding signal (log2 fold change) is -0.5.
“GUGGUGUGUGUUGGACCCUAACACACACCG [gtspaired]”: the binding signal (log2 fold change) is -0.0218.
To “GUGUGGUGUGUUGGAGUCUAACACAUCACA [gtspaired]” belongs -0.728; to “UUUUUUUUUUGAGACGGGGGCCGUCUCCGG [tttttgagapaired]”, 0.807.
As to “UUUUUUUUUUGAGAAGGGGUCCUUCUCCUA [tttttgagapaired]”, the binding signal (log2 fold change) came out at 0.163.
For “GGUGUUGGUGUUGGCUUCUAACACCAGCGC [gtspaired]” the value was -0.735; for “GGUGUUGGUGUUGGACCCUAACACCGAUAC [gtspaired]”, -0.512; for “UUUUUUUUUUGAGAUGGAAACCAUUUCCGG [tttttgagapaired]”, 0.249.
As to “UUUUUUUUUUGAGAGGGUAGCCCUCUCCGG [tttttgagapaired]”, the binding signal (log2 fold change) amounted to 0.671.
To “UUUUUUUUUUGAGAAGGAAUCCUUCUCCGG [tttttgagapaired]” belongs -0.488; to “UUUUUUUUUUGAGACUGUAGCAGUCUCCUA [tttttgagapaired]”, 0.538; to “UUUUUUUUUUGAGACGGAGACUGUCUCCAG [tttttgagapaired]”, 1.01.
For “GUGUGUGGUGUUGGAGUCUAACACCGCACG [gtspaired]” the value was -0.546; for “UUUUUUUUUUGAGAUGGGGUCCAUUUCCUA [tttttgagapaired]”, 0.612; for “GUGUUGUGUGUUGGAACCUAACACACAGCA [gtspaired]”, -0.516.
To “UUUUUUUUUUGAGACCGUAUCGGUCUCCAG [tttttgagapaired]” belongs 0.649.
On to “UUUUUUUUUUGAGAUCGGGGCGAUCUUCUG [tttttgagapaired]”, for which the binding signal (log2 fold change) turned out to be 0.492.
To “GUUGGUGGUGUUGGUCCCUAACACCGCCAA [gtspaired]” belongs -0.0204.
For “UUUUUUUUUUGAGAUGGAUCCUAUCUCCUA [tttttgagapaired]” the value was -0.129; for “UUUUUUUUUUGAGAGGGGUACCCUCUCCAG [tttttgagapaired]”, 0.327.
For “UUUUUUUUUUGAGACUGCUUCAGUCUUCUA [tttttgagapaired]” the value was 0.027; for “GUGUGUGGUGUUGGAAUCUAACACCGCACG [gtspaired]”, -1.07; for “UUUUUUUUUUGAGACGGUUUCUGUCUCCUG [tttttgagapaired]”, 0.532.
Take “UUUUUUUUUUGAGAACGAAGCGUUCUCCAG [tttttgagapaired]”: the binding signal (log2 fold change) is 0.0529.
To “UUUUUUUUUUGAGAGGGCCCCCCUCUCCAG [tttttgagapaired]” belongs 0.896.
For “UUUUUUUUUUGAGAGCGAGACGUUCUUCUA [tttttgagapaired]” the value was 0.32; for “UUUUUUUUUUGAGAUGGAACCCAUCUCCAG [tttttgagapaired]”, 0.0277; for “GUGUUGUGUGUUGGAACCUAACACACAACG [gtspaired]”, -0.506.
As for “UUUUUUUUUUGAGACCGACACGGUCUUCUG [tttttgagapaired]”, the binding signal (log2 fold change) came to 0.691.
On to “GUGUGUUGUGUUGGAAUCUAACACAACGCG [gtspaired]”, for which the binding signal (log2 fold change) is -0.922.
“UUUUUUUUUUGAGAUGGAAUCUAUCUCCUA [tttttgagapaired]”: the binding signal (log2 fold change) was -0.135.
For the sequence “UUUUUUUUUUGAGAGUGAUGCACUCUUCUA [tttttgagapaired]”, the binding signal (log2 fold change) is -0.0602.
As for “GGUGGUUGUGUUGGCGCCUAACACAGCUAC [gtspaired]”, the binding signal (log2 fold change) is -0.582.
To “GUGUUGUGUGUUGGUCCCUAACACACAGCG [gtspaired]” belongs -0.454; to “GUGGUUGGUGUUGGCUUCUAACACCGACCG [gtspaired]”, -0.663.
To “UUUUUUUUUUGAGACCGGAGCGGUUUCCAG [tttttgagapaired]” belongs 0.777.
To “UUUUUUUUUUGAGAGGGCGACCCUCUCCUG [tttttgagapaired]” belongs 0.612.
“UUUUUUUUUUGAGACGGAUCCCGUCUCCUA [tttttgagapaired]”: the binding signal (log2 fold change) amounted to 0.646.
To “UUUUUUUUUUGAGAGGGAUACCCUUUCCGG [tttttgagapaired]” belongs 0.133; to “UUUUUUUUUUGAGAGGGAUGCCCUCUCCUG [tttttgagapaired]”, 0.447; to “GUGUGUGGUGUUGGACCCUAACACCGCAUA [gtspaired]”, -0.115.
For “UUUUUUUUUUGAGACUGGAGCAGUCUCCUG [tttttgagapaired]”, the binding signal (log2 fold change) came to 0.845.
For “UUUUUUUUUUGAGAUCGAGACGAUCUCCGG [tttttgagapaired]” the value was 0.16; for “UUUUUUUUUUGAGAUGGUGGCUAUCUCCAG [tttttgagapaired]”, 0.886; for “UUUUUUUUUUGAGAGCGAGUCGCUCUUCUA [tttttgagapaired]”, 0.285.
For “GGUGGUUGUGUUGGCCUCUAACACAGCCGC [gtspaired]” the value was -0.735; for “UUCUCUCUUCCUCCAAUGGAGGAGGAGGGA [ctspaired]”, -0.0298.
For “GUGGUGUGUGUUGGCUUCUAACACACAUCG [gtspaired]” the value was -0.524.
Consider “UUUUUUUUUUGAGAUGGGGUCCAUCUCCUG [tttttgagapaired]”, for which the binding signal (log2 fold change) is 0.43.
For “GUGUGUUGUGUUGGAGCCUAACACAGCGCG [gtspaired]” the value was -0.642; for “UUUUUUUUUUGAGAGGGAGCCCCUCUUCUA [tttttgagapaired]”, 0.406.
For “UUUUUUUUUUGAGAUCGGGCCGAUCUCCAG [tttttgagapaired]” the value was 0.718; for “UUUUUUUUUUGAGAACGGUGCGUUCUCCUA [tttttgagapaired]”, 0.11.
To “UUUUUUUUUUGAGACGGGGACCGUCUCCUA [tttttgagapaired]” belongs 0.608.
Consider “UUUUUUUUUUGAGACGGGAGCCGUUUCCUA [tttttgagapaired]”, for which the binding signal (log2 fold change) came to 0.481.
With “UUUUUUUUUUGAGAGGGCAACCCUUUCCAG [tttttgagapaired]”, the binding signal (log2 fold change) is 0.365.
To “UUUUUUUUUUGAGAACGGGCCGUUCUCCAG [tttttgagapaired]” belongs 0.575; to “UUUUUUUUUUGAGAUCGGGACGAUCUCCGG [tttttgagapaired]”, 0.0605; to “UUUUUUUUUUGAGAUGGGAUCCAUCUCCUA [tttttgagapaired]”, 0.00666.
In the case of “UUUUUUUUUUGAGAGUGAUACACUCUUCUG [tttttgagapaired]”, the binding signal (log2 fold change) stood at 0.0809.
To “UUUUUUUUUUGAGACUGACACAGUCUCCAG [tttttgagapaired]” belongs 0.355; to “UUUUUUUUUUGAGAUCGGAACGAUCUCCUG [tttttgagapaired]”, 0.332; to “UUCUCUCUUCCUCCACGGGAGGAGGGGAGA [ctspaired]”, -0.436.
To “GGUUGGUGUGUUGGCUUCUAACACAUCAGC [gtspaired]” belongs -0.533.
For “GUGUUGUGUGUUGGAGCCUAACACACAGCA [gtspaired]” the value was -0.416; for “UUUUUUUUUUGAGAUGGUAGCUAUCUCCGG [tttttgagapaired]”, 0.506.
For “UUCUUCUCUCCUCCGCGGGAGGGGGGAAGA [ctspaired]”, the binding signal (log2 fold change) is -0.617.
For “UUUUUUUUUUGAGACUGUAACAGUUUCCAG [tttttgagapaired]” the value was 0.439.

These data come from publication PMC5892938.
